In article PMC4336329 (PLoS ONE, 2015):
Out of some 310,000 compounds screened, about 2,200 (0.71%) showed an effect of 50% or more. The effect is printed as a negative number. Some of the results follow.

Molecular target: human ether-à-go-go-related gene (hERG) potassium channel (human, UniProt Q12809)
Assay: primary screen, population patch clamp on CHO cells stably expressing hERG

Sequence of human ether-à-go-go-related gene (hERG) potassium channel (Q12809 whole entry, looked up): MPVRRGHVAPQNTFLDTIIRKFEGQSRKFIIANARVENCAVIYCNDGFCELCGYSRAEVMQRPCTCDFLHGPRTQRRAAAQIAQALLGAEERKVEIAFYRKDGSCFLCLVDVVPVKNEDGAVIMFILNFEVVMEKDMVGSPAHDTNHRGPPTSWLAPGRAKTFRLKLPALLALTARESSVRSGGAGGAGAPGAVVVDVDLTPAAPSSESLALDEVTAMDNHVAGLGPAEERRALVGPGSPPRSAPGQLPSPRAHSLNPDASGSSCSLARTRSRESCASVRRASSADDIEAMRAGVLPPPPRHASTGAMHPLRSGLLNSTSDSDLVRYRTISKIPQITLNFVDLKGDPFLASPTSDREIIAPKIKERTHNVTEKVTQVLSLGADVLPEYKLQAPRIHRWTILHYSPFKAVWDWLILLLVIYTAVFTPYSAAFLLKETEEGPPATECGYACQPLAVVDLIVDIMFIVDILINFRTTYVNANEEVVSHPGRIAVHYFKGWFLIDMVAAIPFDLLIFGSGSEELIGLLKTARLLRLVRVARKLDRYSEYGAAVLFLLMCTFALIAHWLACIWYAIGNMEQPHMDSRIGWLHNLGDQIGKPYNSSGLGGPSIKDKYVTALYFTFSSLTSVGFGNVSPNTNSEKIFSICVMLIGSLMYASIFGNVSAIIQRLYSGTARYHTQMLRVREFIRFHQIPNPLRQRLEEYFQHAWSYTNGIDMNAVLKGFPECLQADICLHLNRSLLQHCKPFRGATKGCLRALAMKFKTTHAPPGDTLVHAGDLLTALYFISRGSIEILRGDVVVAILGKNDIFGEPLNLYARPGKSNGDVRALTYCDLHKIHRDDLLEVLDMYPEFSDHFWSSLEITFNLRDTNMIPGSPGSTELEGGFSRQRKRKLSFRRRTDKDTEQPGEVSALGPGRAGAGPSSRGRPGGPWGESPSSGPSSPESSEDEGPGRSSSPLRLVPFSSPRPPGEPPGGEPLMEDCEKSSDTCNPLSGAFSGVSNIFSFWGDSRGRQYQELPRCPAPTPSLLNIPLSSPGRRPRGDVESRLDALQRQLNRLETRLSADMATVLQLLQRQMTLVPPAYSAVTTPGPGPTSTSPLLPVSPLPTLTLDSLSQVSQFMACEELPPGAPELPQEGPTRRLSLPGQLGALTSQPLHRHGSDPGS

| SMILES | hERG current change (%, negative = inhibition) at 1uM |
| --- | --- |
| Cc1cc(C)nc(/N=C(\NC(=O)C(C)(C)C)Nc2ccccc2)n1 | 9.72% |
| CCN1CCN(C(=O)CN(CC)S(=O)(=O)c2ccc(Cl)cc2)CC1 | -3.6% |
| COc1cc(O)c(C(CC(=O)N2CCOCC2)c2ccc3c(c2)OCO3)c(OC)c1 (stereo not drawn) | 12.9% |
| O=C(NN=C1CCCCCC1)c1cn(-c2ccccc2)nc1-c1ccccc1 | 5.2% |
| CC(=O)[C@H]1[C@H](CCc2ccccc2)NC(=O)N(Cc2ccccc2)[C@@H]1C | 2.97% |
| CCCCN(CC)C(=O)c1cc2cc3ccc(Cl)cc3nc2o1 | 9.84% |
| N#C/C(=C\c1ccccc1)c1n[nH]c(Cn2cncn2)n1 | 7.16% |
| Cc1nn(CC(O)Cn2cnc3c2c(=O)n(C)c(=O)n3C)c(C)c1Br (stereo not drawn) | 2.13% |
| CC(=O)n1c2c(c3ccccc31)OC(N)=C(C#N)C2c1ccc(C(C)C)cc1 (stereo not drawn) | 6.84% |
| CC1(C)Oc2ccc3ccc(=O)oc3c2/C(=C/O)C1=O | 10.2% |
| O=C(O)CN1C(=O)/C(=C2\SC(=S)N(C(Cc3ccccc3)C(=O)O)C2=O)c2ccccc21 (stereo not drawn) | 8.47% |
| Cc1ccccc1C1=NCC(=O)N(CC(=O)NCc2ccco2)c2sc3c(c21)CCCC3 | -1.4% |
| N#Cc1c(N2CCCC2)ccc(Br)c1Cl | 16.2% |
| Cc1cccc(NC(=O)C2CCN(C(=O)N3CCOc4ccccc43)CC2)c1C | 11.1% |
| COc1ccc(CCNC(=O)c2cc(-c3ccccn3)nc3ccccc23)cc1 | 2.16% |
| CCOc1ccc(N2C(N)=NC(N)=NC2(C)C)cc1.Cl | -1.57% |
| Cc1cc(C)n2nc(C(=O)Nc3cccnc3)nc2n1 | 0.504% |
| C(=N\N(Cc1ccccc1)c1ccccc1)/c1cccnc1 | 10.3% |
| O=C(OCC(=O)N(C1CCCCC1)C1CCCCC1)c1ccco1 | 9.71% |
| O=C(CSc1nnc(SCc2cccc3ccccc23)s1)N/N=C/c1c[nH]c2ccccc12 | -0.74% |
| CC(C)NC(=O)[C@H](CSCc1ccccc1)N1Cc2ccccc2C1=O | -13% |
| CC(C)(C)C(=O)NNC(=O)c1cc(C(C)(C)C)nn1Cc1ccccc1 | 7.83% |
| COc1ccc(C(C(=O)NCc2ccccc2)N(C(=O)c2snc(C(N)=O)c2N)C2CCCC2)cc1O (stereo not drawn) | -8.53% |
| Cc1ccc(OCc2nnc(SCC(=O)N3C(C)CCCC3C)o2)cc1 (stereo not drawn) | 10.8% |
